# Assay results as given in ChEMBL document CHEMBL1157539, “Thousands of chemical starting points for antimalarial lead identification” (Nature, 2010).
# Over roughly 13,000 compounds, “IFI” has its median near 4; the highest 2% begin near 17. This is one part of the list.
# Assay: GSK_TCMDC: Inhibition Frequency Index (IFI). The number of non-kinase HTS assays where a compound showed > 50 % inhibition, expressed as a percentage of the number of such assays in which the compound was tested (-0 is zero)
# Assay type: functional
row,SMILES,IFI [%]
1,COc1cccc(CNC(=O)[C@H]2CNCCN2C(=O)CCCc2ccccc2)c1,0
2,CC(CN(C)C)C(=O)Nc1ccc(-c2csc(-c3nc4ccccc4[nH]3)c2)cc1 (stereo unspecified),2.68
3,O=C(Nc1ccc(Br)c(C(F)(F)F)c1)c1cccc([N+](=O)[O-])c1,3.45
4,O=C(/C=C/c1ccc(Cl)c(Cl)c1)NCCCCCN1CC[C@H](NC(=O)c2sc3ccccc3c2Cl)C1,6.77
5,O=C(Cc1cccc(O)c1)NCC(Cc1ccc(O)cc1)c1ccccc1 (stereo unspecified),0
6,N#CCCN1CCN(Cc2ccc(-c3cccc(-c4nc5cc(F)ccc5[nH]4)c3)cc2)CC1,4.23
7,COc1cc(Cc2cnc(N)nc2N)ccc1OCc1csc(-c2ccc(Cl)cc2)n1,12
8,O=C(/C=C/c1ccc(Cl)c(Cl)c1)N1CCC(CCN2CCc3[nH]c4ccccc4c3C2)CC1,10.7
9,C=CCn1c(Sc2ccc(C#N)c([N+](=O)[O-])c2)nnc1-c1cc(OC)cc(OC)c1,2.14
10,CCOc1ccccc1NC(=O)Nc1ccc2c(c1)CCN(C1CCC1)CC2,0.74
11,COc1ccc(C(C(=O)NC2CCN(C[C@H](O)c3ccnc4ccc(OC)cc34)CC2)N2CCN(c3ccc(Cl)c(Cl)c3)CC2)cc1 (stereo partly specified),2.22
12,COc1ccc2nc(C)cc(N/N=C/C=C/c3ccccc3)c2c1,2.22
13,Cc1cc(N/N=C/c2cccc([N+](=O)[O-])c2)c2ccc(C(F)(F)F)cc2n1,0.91
14,COc1ccc(CNC(=O)c2cnc3c(O)cccc3c2Nc2cccc(NC(=O)c3ccc(Cl)c(Cl)c3)c2)cc1,7.81
15,COc1ccc2nccc([C@@H](O)CN3CCC(NCc4ccc5c(c4)NC(=O)C(C)(C)O5)CC3)c2c1,0.73
16,Cn1c(NC(=O)C2CCC(CNC(=O)c3ccc(O)c(-c4cccc([N+](=O)[O-])c4)c3)CC2)nc2ccccc21 (stereo unspecified),1.48
17,CCOC(=O)c1ccc(N(CCCN(CCCN(c2ccc(C(=O)OCC)cc2)S(=O)(=O)c2ccc(C)cc2)CCc2ccc(O)cc2)S(=O)(=O)c2ccc(C)cc2)cc1,3.68
18,CCCCCCCc1c(C)nc2ccccc2c1O,2.22
19,CC(C)C1C(=O)N(S(C)(=O)=O)C2CCN(C(=O)c3ccc(CN4CCCCC4)c([N+](=O)[O-])c3)C12 (stereo unspecified),0.75

row,SMILES,IFI [%]
1,Cc1cccc2nc(-c3ccc(-c4ccc(CN5CCC(N)C5)cc4)s3)[nH]c12 (stereo unspecified),2.78
2,CN(C)Cc1ccc2cc(NC(=O)c3ccc(-c4ccc(Cl)cc4)cc3)ccc2n1,11.5
3,Fc1ccc(-c2cc(NCCCn3ccnc3)nc(-c3cccnc3)n2)cc1,2.78
4,CC(C)Oc1cc2c(cc1NS(=O)(=O)c1ccc(-c3ccc(Cl)s3)cc1F)CCN(C)CC2,11.1
5,O=C(Nc1ccc(-c2cccc(-c3nc4cc(F)ccc4[nH]3)c2)cc1)Nc1ccsc1,6
6,CCc1cc(NC(=O)Nc2ccnc3ccccc23)ccc1OC,4.55
7,O=C(NCCCCNCC(Cc1cccc(O)c1)c1ccccc1)c1ccc(NC(=O)c2ccc(Cl)cc2)cc1 (stereo unspecified),0
8,O=C(Nc1ccc(OC2CCN(Cc3ccc(F)cc3)C2)c(Cl)c1)c1cccs1 (stereo unspecified),4.48
9,COc1ccc(-c2nc(NC(=O)CS(=O)(=O)c3ccc(C)cc3)sc2C)cc1,4.48
10,O=C(/C=C/c1ccc(Cl)c(Cl)c1)NCCCCCN1CCN(C(=O)Nc2cccc(F)c2)CC1,0.68
11,Nc1nc(Nc2ccc(Cl)cc2)nc2ccccc12,5.31
12,CCOc1cc(C(=O)Nc2ccc3nc(N4CCN(C)CC4)cc(C)c3c2)cc(OCC)c1OCC,2.82
13,COc1ccc2nccc([C@@H](O)CN3CCC(NCCOc4cc(F)cc(F)c4)CC3)c2c1,0.7
14,O=C(COc1ccccc1Cl)N1CCc2cc3nccc(N4CCN5CCC[C@H]5C4)c3cc21,1.49
15,CC(C)CC(=O)N1CCNC[C@@H]1C(=O)NCc1ccc(Cl)c(Cl)c1,-0
16,COCCOCCOCCn1ccc2c3c(N)nc(N)nc3ccc21,2.54
17,COc1ccc(CCN(C)CCCN2CCC(NC(=O)c3cccc4c(=O)c5ccccc5[nH]c34)CC2)cc1OC,5.76
18,Cc1ccc(-c2nc3cc(C(=O)NC4CCN(Cc5ccccc5)CC4)ccc3[nH]2)cc1,3
19,CCN1CCCC1CN(Cc1ccc(-c2ccc(C(F)(F)F)cc2)cc1)C(=O)Cn1c(CCc2cccc(F)c2F)nc(=O)c2ccccc21 (stereo unspecified),4.65

row,SMILES,IFI [%]
1,COc1ccc(CN2CCC(N3CCc4cc(NC(=O)c5cc(C)on5)ccc43)C2)cc1Cl (stereo unspecified),0
2,O=C(/C=C/c1ccc(Cl)c(Cl)c1)NCCCCCN1CC[C@H](NC(=O)Nc2ccc(Oc3ccccc3)cc2)C1,7.8
3,COc1ccc(-c2ccc(NC(=O)c3cccc(Cl)c3)cc2)cc1CN(C)CCN(C)C,3.95
4,CC(C)(C)c1cc(CN2CCN(Cc3ccccc3)CC2)cc(C(C)(C)C)c1O,0.72
5,NS(=O)(=O)c1cccc(-c2ccc3nccc(-c4cccc(S(N)(=O)=O)c4)c3c2)c1,-0
6,CN1CCC(NCc2ccc(-c3ccc(S(=O)(=O)NC4CCC4)s3)cc2)CC1,3.96
7,CN(c1ccc(NC(=O)Nc2cc(C(F)(F)F)ccc2F)cc1)c1ccnc(NCCN2CCOCC2)n1,12.9
8,c1ccc2c(NCCOCCNc3c4ccccc4nc4ccccc34)c3ccccc3nc2c1,-0
9,O=C(Nc1cccc(-c2nn3ncccc3c2-c2ccnc(Nc3ccccc3)n2)c1)c1c(F)cccc1F,5.84
10,c1cncc(CCNCc2ccc(-c3cccc(-c4nc5ccccc5[nH]4)c3)cc2)c1,4.81
11,Clc1ccc2c(Cl)c(CNCCCNc3nc4ccccc4[nH]3)[nH]c2c1,7.52
12,O=C(/C=C/c1ccc(Cl)c(Cl)c1)NCCCCCN1CCC(NC(=S)Nc2ccc(Cl)cc2)CC1,11.7
13,CC(Oc1ccc(Cl)cc1Cl)c1nc(-c2ccc(NC(=O)c3ccco3)cc2)no1 (stereo unspecified),0.91
14,FC(F)(F)c1cc(Nc2ccc(Oc3ccccc3)cc2)c2cc(-c3ccncc3)ccc2n1,2.13
15,CC(C)(C)c1ccc(O)c(CNC2CCCCC2)c1,1.52
16,Cc1[nH]c(C)c(-c2ccc(OCc3ccc(OC(F)(F)F)cc3)nc2)c(=O)c1Br,2.73
17,COc1ccc(C(C(=O)NC2CCN(C[C@H](O)c3ccnc4ccc(OC)cc34)CC2)N2CCc3ccccc3C2)cc1 (stereo partly specified),0
18,COc1cccc(-c2nn(C)c3sc(C(=O)NCCN4CCN(c5ccccc5F)CC4)cc23)c1,2.84
